# Data published in PubChem BioAssay AID1379 (National Center for Advancing Translational Sciences (NCATS), 2008).
# The whole screen tested about 200,000 compounds, of which about 560 (0.28%) were called active. Inconclusive means that the source gave no clear call. Such entries were picked first, then a sample of the others. Calls follow the shape of the dose curve; as a rule, active = well fitted inhibition curve with a large enough effect; inconclusive = small, poorly fitted or top-dose-only effect; inactive = flat fitted curve, though single readings scatter. No potency is given beside an inconclusive call; the fits are too rough.
# Biological target: Luciferin 4-monooxygenase (Photuris pensylvanica) (UniProt Q27757)
# Experiment: Counterscreen for Luciferase (Kinase-Glo TM) Inhibition; also: nearly all actives have a fitted effect of over 60% in size
# Conditions: ATP luminescence, 8 min; series mostly up to 38.3 µM
# Outline: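 Kinase-Glo luciferase light output from ATP and luciferin was measured with 10 uM ATP, within the enzyme's linear range. Buffer: 50 mM imidazole pH 7.2, 50 mM KCl, 7 mM MgCl2, 0.01% Tween 20, 0.05% BSA; luminescence read after 8 min at ambient temperature.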
# Potency is read from the fitted curve at half-maximal effect; tags tell the direction and shape of the fitted curve.
row,Compound,Potency
1,Cc1cc(C(=O)COC(=O)c2ccccc2O)c(C)n1Cc1cccs1,"inconclusive [inhibitor, partial curve]"
2,Cc1ccc(/C=N/Nc2nnc(Cl)c3ccccc23)cc1,"inconclusive [inhibitor, single point]"
3,Cc1ccc(C)c(NC2=C(Cl)C(=O)OC2OC(=O)c2ccco2)c1 (centres undefined),inactive
4,Cc1nonc1C(=O)N/N=C/c1ccc(O)c(O)c1,active: 6.31 µM
5,CCOC(=O)C(=O)Nc1ccc2c(c1)OCO2,"inconclusive [inhibitor, single point]"
6,COc1cccc2[nH]c(-c3ccccn3)nc12,"inconclusive [inhibitor, partial curve]"
7,O=C(COC(=O)Cc1ccccc1F)Nc1ccc2c(c1)OCCO2,inactive
8,C/C(=N\NC(=O)C1=NNC(=O)C1C)c1cccs1 (centres undefined),active: 10 µM
9,CC(=O)/C(N=Nc1ccc2c(c1)OCCO2)=C(\C)O,"inconclusive [inhibitor, partial curve]"
10,COC(=O)c1nn(-c2ccc3c(c2)OCO3)cc1O,"inconclusive [inhibitor, partial curve]"
11,Cc1ccc(-n2[nH]c(C)c(/C=N/NC(=O)c3cccc([N+](=O)[O-])c3)c2=O)cc1C,"inconclusive [inhibitor, partial curve]"
12,Cc1ncoc1C(=O)Nc1cccc(Cl)c1,"inconclusive [inhibitor, partial curve]"
13,N#CCSc1ccc(-c2nc3ccccc3[nH]2)cn1,"inconclusive [inhibitor, single point]"
14,C=CCn1c(C)cc(C(=O)COC(=O)[C@@H](NC(=O)c2ccccc2Cl)C(C)C)c1C,"inconclusive [inhibitor, single point]"
15,c1ccc2sc(-c3ccc4c(c3)OCO4)nc2c1,active: 12.6 µM
16,Cc1cccc(/C(N)=N/OC(=O)c2ccco2)c1,"inconclusive [inhibitor, partial curve]"
17,COc1ccc(C(=O)Nc2ccccc2C(=O)N/N=C/c2ccco2)cc1,active: 2.82 µM
18,COc1cccc(OCc2nc3ccccc3[nH]2)c1,"inconclusive [inhibitor, single point]"
19,Cc1cccc(NC(=O)c2onc3c2CCCC3)n1,active: 4.47 µM
20,Nc1ccc2nc(-c3ccccn3)[nH]c2c1,active: 11.2 µM
21,O=C(O/N=C1/CCCc2occc21)c1ccccc1,"inconclusive [inhibitor, partial curve]"
22,Cc1ccc(-n2[nH]c(C)c(/C=N/Nc3ccc([N+](=O)[O-])cc3[N+](=O)[O-])c2=O)cc1,"inconclusive [inhibitor, partial curve]"
23,O=Nc1ccc(NOC(=O)c2ccccc2Br)cc1,"inconclusive [inhibitor, partial curve]"
24,Cc1[nH]n(-c2ccc([N+](=O)[O-])cc2)c(=O)c1C=NCCN1CCN(C(=O)c2ccccc2F)CC1,"inconclusive [inhibitor, partial curve]"
25,O=C(Nc1ccc2c(c1)OCCO2)c1cccs1,"inconclusive [inhibitor, partial curve]"

row,Compound,Potency
1,Cc1ccccc1NC(=O)c1cnc2ccccn2c1=O,"inconclusive [inhibitor, partial curve]"
2,COc1ccc(-n2cc(CN(C)CCO)c(-c3cccc(F)c3)n2)cc1,"inconclusive [inhibitor, single point]"
3,CSc1ccc(/C=N/NC(=O)c2cccc(O)c2)cc1,"inconclusive [inhibitor, partial curve]"
4,COc1cccc(NC(=O)Nc2ccc3c(c2)nc(C)n3C)c1,"inconclusive [inhibitor, partial curve]"
5,Cc1ccc(-c2noc(COc3ccccc3C)n2)cc1,inactive
6,COc1ccc(/C=N/c2nc3ccccc3n2C)cc1OC,"inconclusive [inhibitor, single point]"
7,Cc1ccc(C(=O)Nc2nc(C)c(C)s2)o1,"inconclusive [inhibitor, partial curve]"
8,COc1ccc(-n2cc(C(=O)c3ccccc3O)cn2)cc1,active: 10 µM
9,CC(=O)/C(N=Nc1ccc2c(c1)OCO2)=C(\C)O,"inconclusive [inhibitor, partial curve]"
10,COc1ccc(C(=O)/C=C/Nc2ccc(NC(C)=O)cc2)cc1OC,inactive
11,Oc1cccc2ccc(/C=C/c3c(F)cccc3Cl)nc12,"inconclusive [inhibitor, single point]"
12,Oc1c(N=Nc2ccccn2)ccc2ccccc12,active: 11.2 µM
13,CC(=O)c1ccccc1NCC(=O)Nc1ccc(C)cc1,inactive
14,COc1cccc2oc(SC)cc(=O)c12,"inconclusive [inhibitor, partial curve]"
15,COc1ccc(CNC(=O)CCSCc2ccccc2C)cc1,inactive
16,CCCCC(=O)Nc1cccc(NC(=O)CC)c1,inactive
17,O=C(Nc1ccc(NC(=O)c2cccs2)cc1Cl)c1ccco1,"inconclusive [inhibitor, single point]"
18,CCNC(=S)NNC(=O)c1cc(-c2ccc(OCC)cc2)nc2ccccc12,active: 1 µM
19,Fc1ccc(OCc2nc3ccccc3s2)cc1,"inconclusive [inhibitor, partial curve]"
20,COC(=O)c1ccc(/C=C/c2ccc3cccc(OC(C)=O)c3n2)cc1,"inconclusive [inhibitor, single point]"
21,Cc1cc(NC(=O)c2sc(Nc3ccc(F)cc3)nc2N)no1,inactive
22,Clc1ccc(-c2cn3nc4c(nc3n2)CCCC4)cc1,"inconclusive [inhibitor, single point]"
23,CN(C)C(=O)c1ccc(-c2nc(N(C)C)c3ccccc3n2)cc1,active: 11.2 µM
24,CC(C)CNS(=O)(=O)c1ccc(CCC(=O)N2CCCC2)cc1,"inconclusive [inhibitor, partial curve]"
